About 7,600 (2.4%) of roughly 320,000 compounds were called active. Inconclusive means that the source gave no clear call. Such entries were picked first, then a sample of the others. Calls come from the whole dose curve; as a rule, active = well fitted activation curve with a large enough effect; inconclusive = small, poorly fitted or top-dose-only effect; inactive = no such curve, though single readings can be large or run the other way. Potencies of inconclusive entries are left out as doubtful fits.
Test: qHTS Assay for NPC1 Promoter Activators; note: nearly all actives have a fitted effect of over 60% in size;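 for activation: reporter is driven by a mutant NPC1 promoter; % of control where 0% means no effect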
Conditions: Huh7 NPC1 promoter luciferase reporter, 24 h; series mostly up to 9.22 µM; activation: at the top concentration
Summary of the method: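 Stable NPC1-promoter luciferase Huh7 line; cpd (DMSO) 24 h, 37 °C, 5% CO2; Amplite luciferase reagent 10 min RT; luminescence readout. qHTS format.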
Potency is the fitted concentration of half-maximal effect; tags give direction and shape of the fitted curve.

Row | SMILES | Potency | activation
1 | Oc1oc(-c2ccccc2)nc1C=NCc1ccccc1 | inconclusive [activator, partial curve] | 
2 | CCCCOc1ccc(C(=S)N2CCC(C(N)=O)CC2)cc1 | inconclusive [activator, partial curve] | 
3 | COc1ccc(NC(=O)Nc2nnc(C(C)(C)C)s2)cc1 | inconclusive [activator, single point] | 
4 | O=C(Nc1ccncc1)c1ccc2ccccc2c1 | inconclusive [activator, partial curve] | 
5 | Cc1ccc(SCC(=O)c2cc(C)c(OC(=S)N(C)C)c(C)c2)cc1 | active: 2.51 µM | 
6 | C/C(=N/NC(=O)c1ccc(C)s1)c1cccc(NC(=O)COc2ccc(Cl)cc2Cl)c1 | active: 0.562 µM | 
7 | Cc1onc(-c2ccccc2)c1C(=O)Nc1sc2c(c1C#N)CCC(C)C2 (stereo not given) |  | inactive: -0.0859%
8 | CC(=O)c1cccc(OCc2cc(C(=O)N(C)Cc3cnccn3)no2)c1 | inconclusive [activator, partial curve] | 
9 | O=C(NC1CCCCC1)c1cc(-c2ccccc2Cl)on1 | inconclusive [activator, partial curve] | 
10 | COCC(=O)Nc1ccc(OCc2ccccc2)cc1 | inconclusive [activator, partial curve] | 
11 | CCOC(=O)/C(C#N)=C/c1ccc(N2CCCCC2)cc1 | inconclusive [activator, single point] | 
12 | CCn1nc(C)c(/C=N/NC(=O)c2c[nH]c3ccccc23)c1C | inconclusive [activator, partial curve] | 
13 | Cc1ccc2cc(CCNC(=O)c3cccs3)c(=O)[nH]c2c1C | active: 2.82 µM | 
14 | NC(=O)COC(=O)c1ccc2noc(-c3ccccc3)c2c1 | active: 3.98 µM | 
15 | N#CCCN1CCCc2cc(N=Nc3ccc(C(F)(F)F)cc3)ccc21 | inconclusive [activator, single point] | 
16 | CC1CCN(C2=NC(=O)/C(=C/c3ccccc3F)S2)CC1 | inconclusive [activator, partial curve] | 
17 | O=C(Nc1ccc(C2SCCS2)cc1)c1ccccc1 | active: 1.12 µM | 
18 | CCOc1ccc2oc(C(=O)NC(C)(C)CC)c(C)c2c1 | inconclusive [activator, single point] | 
19 | O=C(c1cc(-c2cccs2)on1)N1CCCCC1 | active: 1 µM | 
20 | C#CCOCCOCCOCCNc1nc(N2CCOCC2)nc(N2CCN(C(=O)[C@H]([C@@H](C)CC)n3cc(CCCN=C(N)N)nn3)CC2)n1 | inconclusive [activator, single point] | 
21 | CCN(CC)c1ccc(C=Nc2ccccc2C)c(O)c1 | inconclusive [activator, single point] | 
22 | O=c1[nH]c(N/N=C/c2ccc(O)cc2)nc2ccccc12 | inconclusive [activator, single point] | 
23 | CCc1ccc(-c2cn3nc(-c4ccccc4)cnc3n2)cc1 | inconclusive [activator, partial curve] | 
24 | COc1ccc(Cc2nnc(NC(=O)c3ccc(OC)cc3OC)s2)cc1 | inconclusive [activator, partial curve] | 
25 | CC1=Nc2cc(C(=O)N3CCCC3)ccc2Sc2ccc(C)cc21 | inconclusive [activator, single point] | 

Row | SMILES | Potency | activation
26 | CCN(CC)c1ccc(NC(=O)c2cncc(Br)c2)cc1 | inconclusive [activator, partial curve] | 
27 | Cc1cc(C(=O)Nc2ccc3c(c2)OCO3)cs1 | active: 1.78 µM | 
28 | Cc1ccc(OCC(=O)Nc2sc3c(c2C#N)CCC3)cc1 | inconclusive [activator, partial curve] | 
29 | CC(Sc1nnnn1C)C(=O)Nc1ccc(Oc2ccccc2)cc1 (stereo not given) |  | inactive: 1.44%
30 | CN(C)c1ccc(/C=C/c2cccc[n+]2[O-])cc1 | inconclusive [activator, partial curve] | 
31 | CC(C)NC(=O)COc1ccccc1C#N |  | inactive: -8.9%
32 | Cc1ccc([N+](=O)[O-])cc1N/C=C1\CCc2ccccc2C1=O | active: 4.47 µM | 
33 | COc1cccc(NC(=O)CN(C)CC(=O)Nc2cccc(C(F)(F)F)c2)c1 |  | inactive: -5.24%
34 | Cc1ccc(NC(=S)c2ccc(N(C)C)cc2)cc1 | active: 0.891 µM | 
35 | COc1ccc(-c2cc(C(F)F)n3ncc(C(=O)Nc4cccc(S(=O)(=O)N5CCOCC5)c4)c3n2)cc1 |  | inactive: -13.9%
36 | CCc1cc(C(=O)NCC(C)(C)N2CCOCC2)sc1C |  | inactive: 0.305%
37 | CC(=O)Nc1ccc(OCC(=O)N2CCC(Cc3ccccc3)CC2)cc1 |  | inactive: -4.21%
38 | O=C1c2ccccc2NC(c2ccccc2)N1/N=C/c1ccccc1 (stereo not given) | active: 2.51 µM | 
39 | Cc1ccc(CNC(=O)Cn2ncn3cccc3c2=O)cc1 | inconclusive [activator, partial curve] | 
40 | CCOc1cnc(-c2ccc(OC)cc2)o1 | active: 2.51 µM | 
41 | CCOC(=O)C1=C(COC(=O)CCc2ccc(CC)cc2)NC(=O)NC1C (stereo not given) |  | inactive: 1.59%
42 | Cc1ccc(-c2nnc(CSc3nnc(C)s3)o2)cc1 | inconclusive [activator, partial curve] | 
43 | Cc1ccc(NC(=O)c2ccc3nc[nH]c3c2)nc1 |  | inactive: 3.04%
44 | O=c1nc2c(-c3cccc(Br)c3)n[nH]n2c2ccccc12 | inconclusive [activator, single point] | 
45 | Cc1nc2nc(-c3cccnc3)nn2c(C)c1Cl |  | inactive: 14.7%
46 | O=C(c1cc2c(=O)oc3ccccc3c2s1)N1CCOCC1 |  | inactive: 18.1%
47 | Cc1ccsc1/C=N/NC(=O)c1ccc([N+](=O)[O-])cc1 | inconclusive [activator, partial curve] | 
48 | CC(C)c1ccc(NC(=O)c2cc([N+](=O)[O-])ccc2N2CCOCC2)cc1 | inconclusive [activator, single point] | 
49 | Cc1ccc(Nc2n[nH]c(C)c2[N+](=O)[O-])cc1 | active: 2.82 µM | 
50 | CCOC(=O)c1ccc(CNC(=O)c2cc(COc3ccccc3SC)on2)o1 | active: 2.51 µM | 
